PubChem BioAssay AID485344 (National Center for Advancing Translational Sciences (NCATS), 2010)
Among all 340,000 compounds or so, about 6,900 (2%) were called active. Cut-off read from the data, not from the text of the source: active = inhibition above about 30%; inactive = below that, where a call was filed. The entries are a selection whose mix differs from that of the whole data set. Entries without a call were filed so in the source. Some compounds were tested as several samples or in several runs, with calls that do not always agree.

Molecular target: D(2) dopamine receptor (Homo sapiens) (UniProt P14416)
Sequence of UniProt P14416 (P14416 whole entry, looked up): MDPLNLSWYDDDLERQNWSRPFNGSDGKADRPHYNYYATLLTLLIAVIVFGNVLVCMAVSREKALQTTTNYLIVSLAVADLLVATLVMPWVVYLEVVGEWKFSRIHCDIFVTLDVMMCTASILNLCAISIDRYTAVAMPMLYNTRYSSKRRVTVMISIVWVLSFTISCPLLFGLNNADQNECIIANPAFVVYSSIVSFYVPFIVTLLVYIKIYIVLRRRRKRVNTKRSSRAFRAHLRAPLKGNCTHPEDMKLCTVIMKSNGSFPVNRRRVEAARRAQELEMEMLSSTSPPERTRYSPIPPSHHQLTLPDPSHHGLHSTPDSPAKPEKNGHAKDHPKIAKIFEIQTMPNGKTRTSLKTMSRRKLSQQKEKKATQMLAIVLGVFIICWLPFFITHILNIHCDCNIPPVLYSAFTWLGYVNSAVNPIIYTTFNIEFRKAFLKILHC
Assay: HTS Assay for Allosteric Antagonists of the Human D2 Dopamine Receptor: Primary Screen for Antagonists; note: 0% is about no effect
Conditions: HEK293 TREx D2 cells, calcium flux, dopamine EC80; at 10 µM; stronger effect = higher value
Outline: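 Read-out: kinetic calcium fluorescence (1 cycle/s) in inducible HEK293 T-REx D2 cells after an EC80 dopamine addition that followed 180 s compound preincubation. Loss of the dopamine response indicates antagonism.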

Row | Compound | inhibition
1 | Cc1ccc(Cn2c(CO)cnc2SCC(=O)Nc2cccc(F)c2)cc1 | -11.2%
2 | COc1ccc(-c2noc(-c3ccc(NCCc4ccccc4)c([N+](=O)[O-])c3)n2)cc1 | 24.2%
3 | O=C(Cn1cc(S(=O)(=O)Cc2ccccc2Cl)c2ccccc21)Nc1ccc(F)cc1F | -4.22%
4 | Cc1oc2c(C)c3oc(=O)c(CCC(=O)N4CCCCC4)c(C)c3cc2c1C | 4.92%
5 | CC(C)(C)c1ccc(C(=O)Nc2nnc3n2CCS3)cc1 | -9.43%
6 | Cc1cc2oc(C(=O)Nc3ccc(S(=O)(=O)N(C)c4ccccc4)cc3)cc(=O)c2cc1C | 3.14%
7 | CCOC(=O)Cn1c(=O)oc2cc(S(=O)(=O)Nc3ccccc3F)ccc21 | 26.5%
8 | COc1cc(-c2nnc(SCCOc3ccccc3)o2)cc(OC)c1OC | 21%
9 | CCOC(=O)c1c(SCC(=O)Nc2cccc(C)c2C)nc(=O)[nH]c1C | 22.5%
10 | OC(COCc1ccccc1)CN1CCc2ccccc2C1 (centres undefined) | active: 46.9%
11 | CCn1c(C)c(C)c2cc(C(=O)NCCc3cc(OC)ccc3OC)ccc21 | 5.49%
12 | Cc1oc2ncn(CC(C)C)c(=O)c2c1C(=O)NCCCN(C)Cc1ccccc1 | -13.2%
13 | O=C(Nc1cccc(C(F)(F)F)c1)C1CCCN(S(=O)(=O)c2cccc3nonc23)C1 (centres undefined) | -0.439%
14 | Cc1ccccc1Cn1cc(S(=O)(=O)c2ccc(F)cc2)c(=O)c2cc3c(cc21)OCO3 | -5.55%
15 | O=[N+]([O-])c1cc(-c2nc3nc4ccccc4nc3n2CCc2ccccc2)cc([N+](=O)[O-])c1 | active: 67.5%
16 | Cc1ccc(NC(=O)Cn2c(=O)n(CCCCC(=O)NCCc3ccccc3)c(=O)c3ccccc32)cc1 | -0.884%
17 | Cc1cc(=O)n(Cc2ccc(Br)cc2F)c2c1c(C)nn2-c1ccccc1 | 2.54%
18 | Cc1cc(Cl)ccc1OCCSc1nnc(-c2cccs2)o1 | -22.8%
19 | O=C(CCNS(=O)(=O)c1ccc2c(c1)CCCC(=O)N2)NCc1ccc(Cl)cc1 | -1.38%
20 | COc1ccc(C)cc1NC(=O)CN(C)S(=O)(=O)c1ccc2[nH]c(=O)oc2c1 | 8.95%
21 | CCc1nccn1S(=O)(=O)c1cc(Br)ccc1Br | -27.6%
22 | COC(=O)c1sccc1S(=O)(=O)N(CC(=O)Nc1cc(F)ccc1F)c1ccc(C)c(C)c1 | -0.96%
23 | Cc1ccnn1CC(=O)N/N=C/c1cn[nH]c1-c1ccccc1 | active: 43.9%
24 | O=C(COc1ccccc1Cl)Nc1ccc2nc(SCC(=O)N3CCOCC3)sc2c1 | 7.12%

Row | Compound | inhibition
25 | Cc1ccc(NC(=O)CSc2nccn2-c2ccccc2)cc1 | -5.16%
26 | O=S(=O)(c1ccc2nc(Nc3ccc(Br)cc3F)ccc2c1)N1CCCCC1 | -5.23%
27 | COc1ccccc1C(=O)Nc1ccccc1C(=O)N1C(C)CCCC1C (centres undefined) | active: 48.3%
28 | CCSc1nc2sc3c(c2c(=O)n1-c1ccc(C)c(Cl)c1)CCN(C(C)=O)C3 | 2.42%
29 | COc1ccc(CCNC(=O)c2ccc3c(c2)CCN3S(=O)(=O)c2ccc(C)cc2)cc1OC | 11.8%
30 | O=S(=O)(Nc1cccc(-c2ccc(N3CCOCC3)nn2)c1)c1ccc(F)c(C(F)(F)F)c1 | -23.9%
31 | OC(CN1CCN(c2ccccc2Cl)CC1)c1ccccc1 (centres undefined) | active: 86%
32 | COc1ccc(-c2cc(C(F)(F)F)nc(SCC(=O)N(C)Cc3ccccc3)n2)cc1 | 8.64%
33 | COc1ccc(Cl)cc1NC(=O)NC(C)C(C)(C)C (centres undefined) | active: 34.2%
34 | Cn1nc(C(=O)NCc2ccccc2Cl)c2c1-c1ccccc1SC2 | 12.5%
35 | Cc1oc(-c2ccccc2F)nc1CS(=O)(=O)CC(=O)NCCCN(C)C1CCCCC1 | active: 45.2%
36 | CCN(CC)c1nn2c(=O)c(C(=O)NCc3ccccc3Br)cnc2s1 | 9.21%
37 | COc1cc(OC)c2c(C)c(CC(=O)NCc3ccccc3OC)c(=O)oc2c1 | 14%
38 | CCOc1ccc(NC(=O)N2CCN(C(=O)c3nsc4ccccc34)CC2)cc1 | -19.8%
39 | O=C(NCCc1ccc(Cl)cc1)c1cc2c(s1)-c1ccccc1OC2 | 4.54%
40 | COc1ccc(Cl)cc1NC(=O)CN(C)C(=O)c1cn(-c2ccccc2)nc1-c1cccnc1 | active: 44.3%
41 | Cc1cccc(NC(=O)c2ccc(Cn3nc(N4CCN(c5ccccc5)CC4)ccc3=O)o2)c1C | -6.72%
42 | COc1ccc(CCNC(=O)c2cc(=O)[nH]c3ccc(S(=O)(=O)N4CCCCC4)cc23)cc1OC | -6.75%
43 | CCOc1ccc(NC(=O)C2CCC(CNS(=O)(=O)c3ccc4c(c3)CCCC(=O)N4)CC2)cc1 (centres undefined) | 1.3%
44 | CCN(c1cc(C)cc(C)c1)S(=O)(=O)c1nnc(NC(=O)c2ccccc2C)s1 | 6.65%
45 | Cc1ccc(N(CC(=O)N2CCN(c3cccc(C)c3C)CC2)S(=O)(=O)c2c(C)nn(C)c2C)cc1 | 5.69%
46 | CC(=O)Nc1c(C)nn(-c2ccccc2)c1N1CCC(C(=O)NCc2cccc(F)c2)CC1 | -1.59%
47 | CC(C)OCCCn1c(SCc2ccccc2Cl)nc2c(sc3ccccc32)c1=O | 3.28%
48 | CCOc1ccc(NC(=O)CSc2cn(CC(=O)N3CCOCC3)c3ccccc23)cc1 | -1.63%

Row | Compound | inhibition
49 | CCC(Cc1ccccc1)NC(=O)c1cccc(Nc2nc3ccccc3nc2-n2nc(C)cc2C)c1 (centres undefined) | 10.7%
50 | COc1ccc(C(=O)NCc2ccc3c(c2)CCN3C(=O)c2ccc(Cl)cc2)c(OC)c1 | 8.86%
51 | COc1cc(OC)cc(C(=O)Nc2cccc(-c3cn4ccsc4n3)c2)c1 | -3.75%
52 | CCc1cccc(C)c1NC(=O)c1cc(S(=O)(=O)N2CCN(c3ccccc3)CC2)ccc1F | -17.5%
53 | CCOC(=O)c1cc2c(=O)n3ccccc3nc2n(C(C)C)c1=NC(=O)c1c(-c2c(F)cccc2Cl)noc1C | -1.31%
54 | Cc1cccc(CCNC(=O)CCc2c(C)nc3c(c(C)nn3-c3ccccc3)c2C)c1 | 6.73%
55 | COc1ccc2c(c1)CC(C(=O)Nc1cc(OC)c(OC)c(OC)c1)CO2 (centres undefined) | 23.3%
56 | COc1ccc(Cl)cc1NC(=O)CCn1nc(C)cc1C | -4.26%
57 | CN(C)c1ccc(C(=O)NCc2ccc3c(c2)CCN3C(=O)c2ccc(Cl)cc2)cc1 | -23.5%
58 | CN1C(=O)c2ccccc2Sc2ccc(NC(=O)N3CCN(c4cccc(Cl)c4)CC3)cc21 | 24.2%
59 | Clc1ccc(CNc2ncnc3onc(-c4ccc(Cl)cc4)c23)cc1 | 8.47%
60 | Cc1c(CN2CCCC(C(=O)Nc3cccc(-n4cccn4)c3)C2)cnn1C (centres undefined) | active: 46.6%
61 | Cc1ccc(C)c(N2CCN(S(=O)(=O)c3ccc4c(c3)n(C)c(=O)c(=O)n4C)CC2)c1 | -12.1%
62 | CCOC(=O)c1c(-c2ccccc2)csc1NC(=O)c1cc(-c2cccc(Cl)c2)on1 | -16%
63 | O=C(NCc1ccccc1)c1ccc(Cn2c(=O)c3cccn3c3cccnc32)cc1 | 22%
64 | CC(=O)c1cccc(NC(=O)c2ccc3c(c2)c(C)c(C)n3Cc2ccc(Cl)cc2)c1 | 16.1%
65 | COc1cc(OC)c(NC(=O)CSCc2nc(-c3ccc(OC)c(OC)c3)no2)cc1Cl | -5.61%
66 | COCCCC/C(=N\OCCN)c1ccc(C(F)(F)F)cc1 | active: 53.9%
67 | CN(Cc1ccccc1)S(=O)(=O)c1ccc(F)c(C(=O)Nc2cc(Cl)cc(Cl)c2)c1 | -0.93%
68 | O=C(Nc1cc(-c2nc3cc(Cl)ccc3o2)ccc1Cl)c1cc2ccccc2o1 | -8.25%
69 | CCn1cc(C(=O)NCCCOC(C)C)c(=O)c2cc(S(=O)(=O)N(C)C3CCCCC3)ccc21 | 6.51%
70 | Cc1cccc(Nc2cc(C)nc3nc(Cc4ccc(Cl)cc4)nn23)c1 | -6.62%
71 | CCOC(=O)c1ccc(NC(=O)Cn2cc(S(=O)(=O)Cc3ccccc3F)c3ccccc32)cc1 | 10.2%
72 | O=C(NCCN1CCN(c2ccccc2)CC1)c1ccccc1F | active: 72.2%

Row | Compound | inhibition
73 | COc1ccc(CNC(=O)c2ccc3c(Cl)c4c(nc3c2)CCCC4)c(OC)c1 | 19.1%
74 | Cc1nc(SCC(=O)Nc2ccc(Cl)cc2C(F)(F)F)[nH]c(=O)c1Cc1ccccc1 | -3.79%
75 | COc1ccccc1CCNC(=O)C(=O)NCC1OCCCN1S(=O)(=O)c1cc(C)ccc1C (centres undefined) | active: 33.9%
76 | Cc1ccc(Cn2cc3c(n2)-c2c(oc(C(=O)Nc4ccc(F)cc4F)c2C)CC3)cc1 | -5.17%
77 | CCOc1ccccc1CNC(=O)c1ccc2nc(CCc3ccccc3)oc2c1 | 13.7%
78 | CCc1nn2c(=O)cc(COC(=O)c3cccs3)nc2s1 | 11%
79 | CCOc1ccccc1NC(=O)CN1Cc2ccccc2C1=O | -1.39%
80 | COC(=O)c1ccc(CN(Cc2ccc(OC)c(OC)c2)S(=O)(=O)c2ccc(F)c(C(=O)Nc3cc(C)ccc3C)c2)cc1 | -4.11%
81 | Cc1cccc(C(=O)NCC(=O)OCc2cc(=O)n3nc(C)sc3n2)c1 | 4.85%
82 | CC(Oc1ccccc1)C(=O)Nc1ccc(C(=O)OCc2cc(=O)n3ccsc3n2)cc1 (centres undefined) | -1.98%
83 | N#Cc1nc(/C=C/c2ccc(F)cc2)oc1N1CCCCC1 | 13.9%
84 | COc1ccc(N(C(=O)c2ccccc2OC(C)=O)C(C)C2CC2)cc1 (centres undefined) | active: 30.5%
85 | CCOc1ccc(C(c2c(C)[nH]n(-c3ccccc3)c2=O)c2c(C)[nH]n(-c3ccccc3)c2=O)cc1OC | -3.33%
86 | CCN(CC)CCNC(=O)c1ccc2c(=O)n3nc(Nc4cccc(Cl)c4C)sc3nc2c1 | 0.73%
87 | COc1ccc(-c2nsc(NC(=O)c3cccc(OC)c3)n2)cc1 | -20.7%
88 | CCc1ccc(-c2cn3c(n2)sc2cc(C(=O)NCCCc4ccccc4)ccc23)cc1 | 13.6%
89 | CCOc1cccc2cc(-c3nc(-c4ccc(Cl)cc4)c(C)s3)c(=O)oc12 | 2.34%
90 | CCCn1c(N)c(N(CCOC)C(=O)c2ccccc2)c(=O)[nH]c1=O | active: 55.4%
91 | O=C(CSc1n[nH]c(-c2ccc(S(=O)(=O)N3CCCCC3)cc2)n1)Nc1nccs1 | active: 39.2%
92 | COc1ccc(-c2ccc(NS(=O)(=O)c3ccccc3Cl)cc2)nn1 | -9.3%
93 | COc1ccc(Cn2c(CCC(=O)Nc3cccc(Cl)c3)nc3cccnc32)cc1 | 15.5%
94 | Cc1nc(N2CCOCC2)c2c(C(=O)N3CCN(c4ccc(Cl)cc4)CC3)c(C)oc2n1 | -4.79%
